Hit rate of the full screen: of about 310,000 compounds, about 14,000 (4.5%) showed an effect of 50% or more. The effect is printed as a negative number. This is one part of the list.
The compounds below were run against human ether-à-go-go-related gene (hERG) potassium channel (human, UniProt Q12809) (assay: primary screen, population patch clamp on CHO cells stably expressing hERG).
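Further: peak tail current of the secondary pulse compared with the same well before compound.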

human ether-à-go-go-related gene (hERG) potassium channel, sequence (Q12809 whole entry, looked up): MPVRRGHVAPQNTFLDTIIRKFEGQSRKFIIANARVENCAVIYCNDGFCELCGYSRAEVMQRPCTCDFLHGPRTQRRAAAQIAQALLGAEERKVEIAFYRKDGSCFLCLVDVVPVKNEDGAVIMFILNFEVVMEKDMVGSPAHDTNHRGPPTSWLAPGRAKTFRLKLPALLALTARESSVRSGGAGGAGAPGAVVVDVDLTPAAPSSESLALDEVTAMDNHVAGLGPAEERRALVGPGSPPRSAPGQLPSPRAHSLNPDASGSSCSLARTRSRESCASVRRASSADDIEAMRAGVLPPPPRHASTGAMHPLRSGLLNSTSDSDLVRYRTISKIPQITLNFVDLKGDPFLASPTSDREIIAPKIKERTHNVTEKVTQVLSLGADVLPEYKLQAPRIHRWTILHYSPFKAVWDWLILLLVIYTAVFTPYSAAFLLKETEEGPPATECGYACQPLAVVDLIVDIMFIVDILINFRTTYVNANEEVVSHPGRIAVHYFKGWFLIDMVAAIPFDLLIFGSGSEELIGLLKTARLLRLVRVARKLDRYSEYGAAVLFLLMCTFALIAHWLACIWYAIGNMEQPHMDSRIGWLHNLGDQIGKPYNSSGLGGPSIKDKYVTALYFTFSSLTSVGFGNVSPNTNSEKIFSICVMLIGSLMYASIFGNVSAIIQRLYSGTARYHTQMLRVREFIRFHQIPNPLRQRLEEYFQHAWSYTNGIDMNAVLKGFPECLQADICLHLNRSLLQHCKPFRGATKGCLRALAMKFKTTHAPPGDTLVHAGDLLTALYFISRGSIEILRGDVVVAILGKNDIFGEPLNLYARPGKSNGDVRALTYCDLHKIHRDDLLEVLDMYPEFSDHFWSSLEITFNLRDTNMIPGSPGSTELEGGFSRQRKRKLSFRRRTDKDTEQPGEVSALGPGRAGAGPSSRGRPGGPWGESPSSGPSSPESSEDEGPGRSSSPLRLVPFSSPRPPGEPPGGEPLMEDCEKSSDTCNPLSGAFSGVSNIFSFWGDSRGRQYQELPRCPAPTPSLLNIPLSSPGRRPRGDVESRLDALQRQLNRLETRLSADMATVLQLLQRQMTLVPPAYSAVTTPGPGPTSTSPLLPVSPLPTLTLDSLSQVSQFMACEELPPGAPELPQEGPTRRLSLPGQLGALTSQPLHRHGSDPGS

SMILES	hERG current change (%, negative = inhibition) at 10uM [%]
CC1CCc2c(sc(Nc3nc4c(F)cccc4s3)c2C(N)=O)C1 (stereo not drawn)	38.3
C=CCNC(=O)c1onc(CSc2ccccc2F)c1C(=O)O	30.9
CCN(CC)C(=O)c1sc(NC(=O)c2cccs2)c(C#N)c1C	19.9
O=C(COC(=O)C1CC1)Nc1ccc(N=Nc2ccccc2)cc1	12.5
COc1ccc(N(C(=O)C2COc3ccccc3O2)C(C(=O)NC2CCCCC2)c2ccccc2)cc1OC (stereo not drawn)	-3.29
CCCN(CC(=O)Nc1ccccc1C)C(=O)c1ccc(NC2CC2)c([N+](=O)[O-])c1	10.5
CCOC(=O)C1=C(CC)Nc2ccccc2N=C1NC(=O)c1ccc(OC)c(S(=O)(=O)N2CCCCC2C)c1 (stereo not drawn)	-9.14
Cc1cc(C(=O)OCC(=O)Nc2cccc(S(N)(=O)=O)c2)c2ccccc2n1	-4.62
O=C(CCCn1cc([N+](=O)[O-])cn1)Nc1ccc2c(c1)OCO2	4.52
CC(C)(C)NC(=O)CN(C(=O)CCC(=O)Nc1nccs1)c1ccc(F)cc1	12.6
CN1CCC(N(C)c2ccc(C(N)=O)cc2[N+](=O)[O-])CC1	5.32
COC(=O)CSc1[nH]c2ccccc2c1[N+](=O)[O-]	7.33
CN(c1ccc(C(=O)N2CCN(Cc3ccccc3)CC2)cc1)S(=O)(=O)c1ccccc1	-36.4
COc1ccc(N2C(=O)c3ccccc3C(C)(C)C2=O)cc1	-0.639
Cc1nc(-c2noc(-c3cccc(Cl)c3)n2)c(C(F)(F)F)o1	5.66
Cc1ccc(-n2c(C)cc(C(=O)CSc3nncs3)c2C)cc1	-4.27
CCOC(=O)c1c(C)c(C(=O)Nc2ccc3c(c2)OCCO3)c(C)n1C	-1.09
Cc1ccc(C(C(=O)NC2CCCC2)N(Cc2ccc(F)cc2)C(=O)c2csnn2)o1 (stereo not drawn)	-2.84
c1ccc2c(NCC3CCCO3)nc(-c3ccncc3)nc2c1 (stereo not drawn)	-14.6
CCOP(=O)(OCC)c1ccccc1OCP(C)(=O)COc1ccccc1P(=O)(OCC)OCC	19.4
Cc1ccccc1NC(=O)Cc1nc(COC(=O)CCOc2ccccc2)cs1	16.2
Cc1cc(C)c(S(=O)(=O)N2CCN(C(=O)C(C)Cn3cncn3)CC2)c(C)c1 (stereo not drawn)	-1.37
CN1CCN(Cc2ccccc2Sc2ccccc2)CC1.O=C(O)/C=C\C(=O)O	-82
Cc1ccc(-c2cc(C(=O)NCc3ccco3)c3ccccc3n2)o1	-9.18
COc1ccc(-c2noc(CN(C)C(=O)c3ccco3)n2)cc1	2.58
O=C1c2cccnc2C(O)N1Cc1ccc(F)cc1 (stereo not drawn)	0.629
Cc1nnsc1-c1c(C(=O)Oc2ccccc2)c(C)nn1-c1ccccc1	2.16

SMILES	hERG current change (%, negative = inhibition) at 10uM [%]
O=C(NNC(=O)c1ccco1)c1csc(N2CCOCC2)n1	16.7
O=C(CSc1n[nH]c(=O)n1-c1ccc2c(c1)OCCO2)Nc1ccccc1	13
Cc1ccc2nc(SC(C(=O)Nc3ccc(F)cc3)c3ccccc3)[nH]c2c1 (stereo not drawn)	-1.38
O=C(Nc1nc2c(s1)CCCC2)c1ccc2ncsc2c1	9.54
CCn1c(SCC(=O)NC2CCCC2)nnc1-c1ccncc1	16.4
CN(Cc1ccccc1)C(=O)CCC1CCN(C(=O)CCC(F)(F)F)CC1	-4.45
CCOC(=O)CCn1nnc(N)n1	16.5
O=C(Nc1ccc(-c2cscn2)cc1)C1CCCN(Cc2ccccc2)C1 (stereo not drawn)	-32.1
CCOC(=O)CSc1nc2c(c(=O)n1-c1ccc(OCC)cc1)SCC2	12.6
Cc1c(Cl)ccc2c1NC(=O)[C@]21N[C@@H](Cc2ccccc2)[C@H]2C(=O)N(c3ccc(F)cc3)C(=O)[C@H]21	15.9
O=C1/C(=C/c2cccs2)SC(=S)N1N1CCOCC1	5.26
O=C(CS(=O)(=O)c1ccc(Cl)cc1)Nc1nnc(-c2cccs2)o1	28.5
Cc1cccc(C)c1NC(=O)c1cnn(-c2ccccc2)c1C	6.6
COc1ccc(C(=O)Nc2ccc(N3CCOCC3)cc2)cc1S(=O)(=O)NC1CCCC1	13.1
N#Cc1ccc(CSc2nnc(-c3cccs3)n2-c2ccccc2)cc1	-72.7
Cc1noc(C)c1COc1ccc(C(=O)OCC(=O)Nc2ccc(S(N)(=O)=O)cc2)cc1	-6.61
CCn1nc(C)c(/C=C2\CCCC3=C2OC(N)=C(C#N)C3c2c(C)nn(CC)c2C)c1C (stereo not drawn)	10.1
Cc1ccc(S(=O)(=O)NCc2ccccc2)cc1C(=O)N1CC(C)CC(C)C1 (stereo not drawn)	-41.7
CC(=O)Nc1ccc(Oc2cc(N)cc([N+](=O)[O-])c2)cc1	15.7
O=C(Cc1ccc(Cl)cc1)Nc1ccccc1Sc1ccccc1	11.5
CCCCCCCNC(=O)C1(CC2CC(c3cccc(Br)c3)=NO2)CCN(C(=O)CCCCCBr)CC1 (stereo not drawn)	-82.7
COc1ccc(N2CCN(C(=O)COC(=O)CCOc3ccccc3C)CC2)cc1	-62.5
COc1ccc(S(=O)(=O)N2CCOC2CNC(=O)C(=O)NCCCN2CCOCC2)cc1C (stereo not drawn)	-0.982
COc1cc(CCC(=O)OCC(=O)Nc2ccccc2C#N)cc(OC)c1OC	9.45
CCOC(=O)N1CCC(Nc2nc3ccccc3n3cnnc23)CC1	-4.52
Cc1ccc(CNC(=O)C2=NNC(=O)CC2)cc1	-8.66
O=C(Cc1ccc(S(=O)(=O)N2CCOCC2)s1)Nc1cc(C(F)(F)F)cc(C(F)(F)F)c1	19.4

— paper PMC4336329 (PLoS ONE, 2015)
